According to article PMC4336329 (PLoS ONE, 2015):
Hit rate of the full screen: of about 310,000 compounds, about 2,200 (0.71%) showed an effect of 50% or more. Effects have a minus sign here. Some of the results follow.

Each molecule was assayed against human ether-à-go-go-related gene (hERG) potassium channel (human, UniProt Q12809) (assay: primary screen, population patch clamp on CHO cells stably expressing hERG).
Sequence of human ether-à-go-go-related gene (hERG) potassium channel (Q12809 whole entry, looked up): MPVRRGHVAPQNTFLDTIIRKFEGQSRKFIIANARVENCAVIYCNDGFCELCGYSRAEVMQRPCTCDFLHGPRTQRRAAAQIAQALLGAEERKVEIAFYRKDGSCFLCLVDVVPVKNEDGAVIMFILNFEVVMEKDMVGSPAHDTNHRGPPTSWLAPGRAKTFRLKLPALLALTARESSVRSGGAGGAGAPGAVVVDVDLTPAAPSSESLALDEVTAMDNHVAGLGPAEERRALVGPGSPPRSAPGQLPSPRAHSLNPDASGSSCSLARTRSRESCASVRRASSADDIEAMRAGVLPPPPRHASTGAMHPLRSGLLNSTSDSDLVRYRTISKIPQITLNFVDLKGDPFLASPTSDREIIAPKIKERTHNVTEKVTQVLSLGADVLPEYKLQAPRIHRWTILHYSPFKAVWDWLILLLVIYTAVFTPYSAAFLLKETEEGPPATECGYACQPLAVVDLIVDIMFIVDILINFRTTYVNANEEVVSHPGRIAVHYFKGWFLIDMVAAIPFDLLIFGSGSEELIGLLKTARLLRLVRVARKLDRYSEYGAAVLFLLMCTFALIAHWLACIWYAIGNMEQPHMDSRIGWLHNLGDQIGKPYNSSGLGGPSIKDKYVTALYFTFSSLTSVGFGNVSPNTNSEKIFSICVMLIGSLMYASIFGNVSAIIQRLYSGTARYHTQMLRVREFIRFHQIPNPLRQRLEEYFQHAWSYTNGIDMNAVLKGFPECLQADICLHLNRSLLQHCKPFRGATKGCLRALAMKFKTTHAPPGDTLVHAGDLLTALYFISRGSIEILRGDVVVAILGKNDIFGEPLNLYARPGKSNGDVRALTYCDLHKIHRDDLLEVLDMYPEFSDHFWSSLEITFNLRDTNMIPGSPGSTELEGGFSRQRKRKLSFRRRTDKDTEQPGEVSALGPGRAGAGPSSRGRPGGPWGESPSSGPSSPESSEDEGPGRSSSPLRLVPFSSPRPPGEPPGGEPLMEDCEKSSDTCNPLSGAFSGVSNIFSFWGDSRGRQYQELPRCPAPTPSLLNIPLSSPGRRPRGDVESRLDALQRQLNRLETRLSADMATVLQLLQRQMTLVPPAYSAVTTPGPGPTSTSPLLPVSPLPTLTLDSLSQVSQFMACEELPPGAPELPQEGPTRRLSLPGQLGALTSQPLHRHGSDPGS

SMILES	hERG current change (%, negative = inhibition) at 1uM
O=C(Nc1cc(S(=O)(=O)Nc2ccccc2Cl)ccc1O)c1sc2cc(Cl)ccc2c1Cl	15.4%
Cn1nc(C(=O)Nc2ccc(Cl)cc2)cc1C(=O)Nc1ccc(Cl)cc1	18.6%
N#Cc1sc2nc3c(c(-c4ccco4)c2c1N)CCCC3	1.78%
Oc1ccccc1-c1cc(-c2ccc3c(c2)OCCO3)n[nH]1	10.5%
CC(=O)Nc1ccc(S(=O)(=O)N2CCN(S(=O)(=O)N3CCC(C)CC3)CC2)cc1	12.7%
COc1cccc(CNC(=O)CCCCCn2c(=S)[nH]c3ccc(N4CCOCC4)cc3c2=O)c1	5.25%
CC(C)Oc1cccc(C(=O)C2CCCN(C(=O)c3csnn3)C2)c1 (stereo not shown)	7.94%
CC1CCCCN1CC(=O)Nc1ccc2c(c1)OC(F)(F)O2 (stereo not shown)	13.7%
O=C(NCCCN1CCCCCC1)C1CCCN(S(=O)(=O)c2cccc3nsnc23)C1 (stereo not shown)	5.76%
Cc1c(NC(=O)Nc2ccccc2)cccc1[N+](=O)[O-]	10.3%
CCN(CC)CCN1C(=O)c2cccc3cc(N)cc(c23)C1=O	-0.692%
O=C(CSc1nnc(-c2ccccc2)o1)NC1CCS(=O)(=O)C1 (stereo not shown)	5.79%
CCOc1ccc(C(=O)N/N=C/c2c(C)[nH]c(=O)[nH]c2=O)cc1	12.5%
NS(=O)(=O)c1ccc(CCNC(=O)Cn2c(=O)c3cccn3c3cccnc32)cc1	14.5%
O=C1N(C2CCCC2)C[C@@H]2C[C@@H](c3cccn3-c3ccccn3)N3CCC[C@@]123	-28.9%
C=CCn1c(SCc2ccccc2C#N)nnc1-c1ccccc1O	-16%
O=c1c2ccccc2nc(SCc2cc([N+](=O)[O-])cc3c2OCOC3)n1-c1ccccc1	5.2%
COc1ccccc1N1C(=O)C2C3C=CC(C3)C2C1=O (stereo not shown)	4.19%
NC(=O)Nc1ccc(Cl)cc1	7.6%
CCn1c(-c2cccnc2Cl)nc2cc(Cl)c(Cl)cc21	-6.16%
COc1c(C)cc(C(=O)C2CCCN(C(=O)c3cc(C4CC4)[nH]n3)C2)cc1C (stereo not shown)	6.63%
Cc1cccc(C(=O)NCC(=O)N2CCC2)c1	11.3%
O=C(NCc1ccccc1)C12CC3CC(CC(Br)(C3)C1)C2	9.31%
Cc1[nH]n(-c2ccccc2)c(=O)c1N=Nc1ccccc1	7.53%
CC(C)(C)c1nnc(NC(=O)c2ccc3c(c2)OCO3)s1	13.1%
